# The other results are listed elsewhere or left out.
# B1: Surfactant Protein D (Human); Neck + Carbohydrate Recognition Domain (NCRD) (Homo sapiens) (protein)
# chain: MLLFLLSALVLLTQPLGYLEAEMKTYSHRTMPSACTLVMCSSVESGLPGRDRDGREGPRGEKGDPGLPGAAGQAGMPGQAGPVGPKGDNGSVGEPGPKGDTGPSGPPGPPGVPGPAGREGALGKQGNIGPQGKPGPKGEAGPKGEVGAPGMQGSAGARGLAGPKGERGVPGERGVPGNTGAAGSAGAMGPQGSPGARGPPGLKGDKGIPGDKGAKGESGLPDVASLRQQVEALQGQVQHLQAAFSQYKKVELFPNGQSVGEKIFKTAQFVKPFTEAQLLCTQAGGQLASPRSAAENAALQQLVVAKNEAAFLSMTDSKTEGKFTYPTGESLVYSNWAPGEPNDDGGSEDCVEIFTNGKWNDRACGEKRLVVCEA
# How the values were obtained:
# Experiment in all cases: glycan array binding signal (z-score within array); higher = stronger binding
# Details in all cases: glycan notation: IUPAC condensed, linker removed; mutation: F355A
# [1] = target: Man(a1-3)[Man(a1-6)]Man(a1-6)[Man(a1-2)Man(a1-3)]Man(b1-4)GlcNAc(b1-4)GlcNAc
# Method in brief: (§1)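 Arrays were curated from the Consortium for Functional Glycomics database, 3228 in total, and kept only where the protein sequence was available. Binding is expressed as a within-array Z-score. This score was averaged across arrays of the same protein sequence at different concentrations or buffers and across linkers, and negative values can be read as non-binding.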
# [2] = target: Man(a1-3)[Man(a1-6)]Man(a1-6)[Man(a1-3)]Man
# Method in brief: as §1
# [3] = target: Man(a1-3)[Man(a1-6)]Man(a1-6)[Man(a1-3)]Man(b1-4)GlcNAc(b1-4)GlcNAc
# Method in brief: as §1
# [4] = target: Man(a1-3)[Man(a1-6)]Man(b1-4)GlcNAc(b1-4)GlcNAc
# Method in brief: as §1
# [5] = target: Man(a1-6)Man
# Method in brief: as §1
# [6] = target: Man(b1-4)GlcNAc
# Method in brief: as §1
# [7] = target: Neu5Ac(a2-3)Gal
# Method in brief: as §1
# [8] = target: Neu5Ac(a2-3)Gal(b1-3)GalNAc
# Method in brief: as §1
# [9] = target: Neu5Ac(a2-3)Gal(b1-3)GalNAc(b1-3)Gal(a1-4)Gal(b1-4)Glc
# Method in brief: as §1
# [10] = target: Neu5Ac(a2-3)Gal(b1-3)GalNAc(b1-3)Gal(b1-4)GlcNAc
# Method in brief: as §1
# [11] = target: Neu5Ac(a2-3)Gal(b1-3)GalNAc(b1-4)[Neu5Ac(a2-3)]Gal(b1-4)Glc
# Method in brief: as §1
# [12] = target: Neu5Ac(a2-3)Gal(b1-3)GalNAc6S
# Method in brief: as §1
# [13] = target: Neu5Ac(a2-3)Gal(b1-3)GlcNAc
# Method in brief: as §1
# [14] = target: Neu5Ac(a2-3)Gal(b1-3)GlcNAc(b1-3)Gal(b1-3)GlcNAc
# Method in brief: as §1
# [15] = target: Neu5Ac(a2-3)Gal(b1-3)GlcNAc6S
# Method in brief: as §1
# [16] = target: Neu5Ac(a2-3)Gal(b1-3)[Fuc(a1-4)]GlcNAc
# Method in brief: as §1
# [17] = target: Neu5Ac(a2-3)Gal(b1-3)[Fuc(a1-4)]GlcNAc(b1-3)Gal(b1-4)[Fuc(a1-3)]GlcNAc
# Method in brief: as §1
# [18] = target: Neu5Ac(a2-3)Gal(b1-3)[Neu5Ac(a2-3)Gal(b1-4)]GlcNAc
# Method in brief: as §1
# [19] = target: Neu5Ac(a2-3)Gal(b1-3)[Neu5Ac(a2-6)]GalNAc
# Method in brief: as §1
# [20] = target: Neu5Ac(a2-3)Gal(b1-4)Glc
# Method in brief: as §1
# [21] = target: Neu5Ac(a2-3)Gal(b1-4)GlcNAc
# Method in brief: as §1
# [22] = target: Neu5Ac(a2-3)Gal(b1-4)GlcNAc(b1-2)Man(a1-3)[GlcNAc(b1-2)Man(b1-4)GlcNAc(b1-2)Man(a1-6)]Man(b1-4)GlcNAc(b1-4)GlcNAc
# Method in brief: as §1
# [23] = target: Neu5Ac(a2-3)Gal(b1-4)GlcNAc(b1-2)Man(a1-3)[Neu5Ac(a2-6)Gal(b1-4)GlcNAc(b1-2)Man(a1-6)]Man(b1-4)GlcNAc(b1-4)GlcNAc
# Method in brief: as §1
# [24] = target: Neu5Ac(a2-3)Gal(b1-4)GlcNAc(b1-3)Gal(b1-3)GlcNAc
# Method in brief: as §1
# [25] = target: Neu5Ac(a2-3)Gal(b1-4)GlcNAc(b1-3)Gal(b1-4)GlcNAc
# Method in brief: as §1
# [26] = target: Neu5Ac(a2-3)Gal(b1-4)GlcNAc(b1-3)Gal(b1-4)GlcNAc(b1-3)Gal(b1-4)GlcNAc
# Method in brief: as §1
# [27] = target: Neu5Ac(a2-3)Gal(b1-4)GlcNAc(b1-3)Gal(b1-4)[Fuc(a1-3)]GlcNAc
# Method in brief: as §1
# [28] = target: Neu5Ac(a2-3)Gal(b1-4)GlcNAc(b1-6)[Gal(b1-3)]GalNAc
# Method in brief: as §1
# [29] = target: Neu5Ac(a2-3)Gal(b1-4)GlcNAc(b1-6)[Neu5Ac(a2-3)Gal(b1-3)]GalNAc
# Method in brief: as §1
# [30] = target: Neu5Ac(a2-3)Gal(b1-4)GlcNAc6S
# Method in brief: as §1
# [31] = target: Neu5Ac(a2-3)Gal(b1-4)[Fuc(a1-3)]GlcNAc
# Method in brief: as §1
# [32] = target: Neu5Ac(a2-3)Gal(b1-4)[Fuc(a1-3)]GlcNAc(b1-3)Gal
# Method in brief: as §1
# [33] = target: Neu5Ac(a2-3)Gal(b1-4)[Fuc(a1-3)]GlcNAc(b1-3)Gal(b1-4)GlcNAc
# Method in brief: as §1
# [34] = target: Neu5Ac(a2-3)Gal(b1-4)[Fuc(a1-3)]GlcNAc(b1-3)Gal(b1-4)[Fuc(a1-3)]GlcNAc(b1-3)Gal(b1-4)[Fuc(a1-3)]GlcNAc
# Method in brief: as §1
# [35] = target: Neu5Ac(a2-3)Gal(b1-4)[Fuc(a1-3)]GlcNAc(b1-6)[Gal(b1-3)]GalNAc
# Method in brief: as §1
# [36] = target: Neu5Ac(a2-3)Gal(b1-4)[Fuc(a1-3)]GlcNAc6S
# Method in brief: as §1
# [37] = target: Neu5Ac(a2-3)Gal6S(b1-4)GlcNAc
# Method in brief: as §1
binder,measurement,setting,value
B1,glycan array binding signal (z-score),[1],2.15
same,glycan array binding signal (z-score),[2],5.56
same,glycan array binding signal (z-score),[3],2.12
same,glycan array binding signal (z-score),[4],-0.103
same,glycan array binding signal (z-score),[5],-0.099
same,glycan array binding signal (z-score),[6],-0.133
same,glycan array binding signal (z-score),[7],-0.174
same,glycan array binding signal (z-score),[8],-0.164
same,glycan array binding signal (z-score),[9],-0.117
same,glycan array binding signal (z-score),[10],-0.087
same,glycan array binding signal (z-score),[11],-0.133
same,glycan array binding signal (z-score),[12],-0.139
same,glycan array binding signal (z-score),[13],-0.144
same,glycan array binding signal (z-score),[14],-0.141
same,glycan array binding signal (z-score),[15],-0.152
same,glycan array binding signal (z-score),[16],-0.157
same,glycan array binding signal (z-score),[17],-0.091
same,glycan array binding signal (z-score),[18],-0.12
same,glycan array binding signal (z-score),[19],-0.14
same,glycan array binding signal (z-score),[20],-0.129
same,glycan array binding signal (z-score),[21],-0.098
same,glycan array binding signal (z-score),[22],-0.059
same,glycan array binding signal (z-score),[23],-0.166
same,glycan array binding signal (z-score),[24],-0.15
same,glycan array binding signal (z-score),[25],-0.113
same,glycan array binding signal (z-score),[26],-0.156
same,glycan array binding signal (z-score),[27],-0.054
same,glycan array binding signal (z-score),[28],-0.161
same,glycan array binding signal (z-score),[29],-0.134
same,glycan array binding signal (z-score),[30],-0.121
same,glycan array binding signal (z-score),[31],-0.111
same,glycan array binding signal (z-score),[32],-0.071
same,glycan array binding signal (z-score),[33],-0.107
same,glycan array binding signal (z-score),[34],-0.115
same,glycan array binding signal (z-score),[35],0.381
same,glycan array binding signal (z-score),[36],-0.116
same,glycan array binding signal (z-score),[37],-0.126
